Assay results taken from PubChem BioAssay (Tox21).
The list shows a part of the results, in another mix than the full data. Records with an inconclusive call do not appear. More than one record can exist for a structure, and the calls need not agree. Active and inactive are the calls of the source. Unless noted, calls come from the whole dose curve; as a rule, active = well fitted curve in the direction sought with a large enough effect in the repeat runs; inconclusive = weak or mixed curves; inactive = no such curve, though single readings can be large; an effect the other way counts as inactive or inconclusive.

Assay: qHTS assay to identify small molecule antagonists of the androgen receptor (AR) signaling pathway - cell viability counter screen (AID 743033; note: nearly all actives have a fitted effect of over 45% in size)
Conditions: AR-bla HEK293 viability, CellTiter-Glo luminescence, 16 h
Potency is the fitted concentration of half-maximal effect.

Structure (SMILES)	Potency
NNC(N)=S	active: 43.6 µM
CCCCCCCCCC(CC)c1ccc(S(=O)(=O)O)cc1 (stereo unspecified)	active: 27.5 µM
Oc1cc(Cl)ccc1Oc1ccc(Cl)cc1Cl	active: 12.6 µM
ClC1=C(Cl)[C@]2(Cl)[C@@H]3[C@@H]4C[C@@H]([C@H]5O[C@@H]45)[C@@H]3[C@@]1(Cl)C2(Cl)Cl	active: 49 µM

Assay: qHTS assay to identify small molecule antagonists of the androgen receptor (AR) signaling pathway using the MDA cell line - cell viability counter screen (AID 743041; note: nearly all actives have a fitted effect of over 45% in size; for viability change, negative = cytotoxic: % is set by controls: 0 for no effect and ±100 for the full control effect)
Conditions: MDA-kb2 viability, CellTiter-Fluor, 16 h, cells co-treated with R1881 androgen agonist; series mostly up to 70.3 µM; viability change, negative = cytotoxic: at the top concentration
Procedure, shortened: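 Cells were plated at 3,000 per well and left 5 h. Compounds in DMSO were then pinned in, followed by R1881. After 16 h at 37C, CellTiter-Fluor fluorescence gave viability.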

Structure (SMILES)	Potency	viability change, negative = cytotoxic
Nc1ccc(N=Nc2ccccc2)cc1	active: 54.5 µM	–
CCCCCCCCCCCC[N+](C)(C)CCOc1ccccc1	active: 68.6 µM	–
Nc1ccc(-c2ccc(N)c(Cl)c2)cc1Cl	–	inactive: 4.57%
CC(C)CC(C)Nc1ccc(Nc2ccccc2)cc1 (stereo unspecified)	active: 60.1 µM	–
Oc1cc(Cl)ccc1Oc1ccc(Cl)cc1Cl	active: 27.3 µM	–

Assay: qHTS assay to identify small molecule antagonists of the estrogen related receptor signaling pathway with the pleiotropic PPARgamma coactivator (PGC) from Tox21 10K library - cell viability counter screen (AID 1224840; active = well fitted cell-killing curve with a large enough effect in the repeat runs, not every such curve was filed as active; note: nearly all actives have a fitted effect of over 40% in size; for viability change, negative = cytotoxic: % is set by controls: 0 for no effect and ±100 for the full control effect)
Conditions: PGC/ERR reporter cells viability, CellTiter-Fluor, 17.5 h; series mostly up to 92.4 µM; viability change, negative = cytotoxic: at the top concentration
Procedure, shortened: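 Step one, plate 2,000 PGC/ERR cells per well; step two, incubate 6 h at 37 C/5% CO2; step three, pin-transfer compounds; step four, incubate 17.5 h; step five, add CellTiter-Fluor and read fluorescence after 30 min.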

Structure (SMILES)	viability change, negative = cytotoxic	Potency
CC(C)(C)c1cc(O)ccc1O	inactive: 1.51%	–
CCOP(=O)(NC(C)C)Oc1ccc(SC)c(C)c1 (stereo unspecified)	inactive: -6.78%	–
COc1nn(CSP(=S)(OC)OC)c(=O)s1	inactive: -14.9%	–
CC(C)(C)CC(C)(C)c1ccc(O)cc1	–	active: 48.6 µM

Assay: qHTS assay to identify small molecule antagonists of the estrogen receptor beta (ER-beta) signaling pathway - cell viability counter screen (AID 1259382); note: nearly all actives have a fitted effect of over 55% in size
Conditions: ER-beta-UAS-bla HEK293T viability, CellTiter-Glo luminescence, 16 h
Procedure, shortened: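 Following a 6 hr plating period, HEK293T cells carrying a UAS-driven beta-lactamase reporter under ER-beta control received compounds and 1nM E2 (final). After 16 hr at 37C and 2 hr substrate loading, CellTiter-Glo luminescence indicated viability.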

Structure (SMILES)	Potency
CCCCCCCCCC(CC)c1ccc(S(=O)(=O)O)cc1 (stereo unspecified)	active: 25.8 µM
O=S(=O)(O)C(F)(F)C(F)(F)C(F)(F)C(F)(F)C(F)(F)C(F)(F)C(F)(F)C(F)(F)F	active: 26.5 µM
ClC1=C(Cl)[C@]2(Cl)[C@@H]3[C@@H]4C[C@@H]([C@H]5O[C@@H]45)[C@@H]3[C@@]1(Cl)C2(Cl)Cl	active: 68.6 µM
